Test results reported in the supplement of paper PMC4604168 (melanoma cell lines).
The other results are listed elsewhere or left out. Many values rest on one well or one pass, so single values are uncertain.

Legend:
Assay in all cases: cell count relative to DMSO control; melanoma cells; higher = more viable cells
Conditions in all cases: library dose: low library concentration; 72 h
MZ2-MEL = system: MZ2-MEL
MeWo = system: MeWo
RPMI7951 = system: RPMI7951
RVH-421 = system: RVH-421
SkMel28 = system: SkMel28
SkMel2 = system: SkMel2
SkMel30 = system: SkMel30
UACC62 = system: UACC62
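Also: cell number obtained by counting DAPI-stained nuclei in high-throughput microscope images with image analysis software, screen run in 1,536-well plates.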

SMILES	cell count (MZ2-MEL)	cell count (MeWo)	cell count (RPMI7951)	cell count (RVH-421)	cell count (SkMel28)	cell count (SkMel2)	cell count (SkMel30)	cell count (UACC62)
COc1cc([C@@H]2c3cc4c(cc3[C@@H](O[C@@H]3O[C@@H]5CO[C@@H](C)O[C@H]5[C@H](O)[C@H]3O)[C@H]3COC(=O)[C@H]23)OCO4)cc(OC)c1O [etoposide] + Cn1c(Nc2ccc(C(F)(F)F)cc2)nc2cc(Oc3ccnc(-c4ncc(C(F)(F)F)[nH]4)c3)ccc21 [CHIR265] (first compound 0.02 µM, partner dose 0.08 µM)	71%	62.3%	65.6%	70.8%	49%	67.5%	52.1%	44%
C[C@]1(O)C[C@@H](c2nc(-c3ccc4ccc(-c5ccccc5)nc4c3)c3c(N)nccn32)C1 + NC1(c2ccc(-c3nc4ccn5c(=O)[nH]nc5c4cc3-c3ccccc3)cc2)CCC1 [MK2206] (first compound 0.4 µM, partner dose 0.4 µM)	93.8%	94.7%	94.9%	96.2%	78.5%	83%	93.5%	84.2%
Cn1cnc2c(F)c(Nc3ccc(Br)cc3Cl)c(C(=O)NOCCO)cc21 [selumetinib] + C[C@@H](Oc1cc(-c2cnn(C3CCNCC3)c2)cnc1N)c1c(Cl)ccc(F)c1Cl [Crizotinib] (first compound 0.015 µM, partner dose 0.2 µM)	93.8%	94.4%	99%	76.8%	94.2%	66.1%	69.8%	68.9%
Cn1cnc2c(F)c(Nc3ccc(Br)cc3Cl)c(C(=O)NOCCO)cc21 [selumetinib] + COc1ccc(Cl)c(Nc2nc3ccccc3nc2NS(=O)(=O)c2cccc(NC(=O)C(C)(C)N)c2)c1 [XL147] (first compound 0.015 µM, partner dose 0.8 µM)	92.9%	86.3%	116%	62.5%	86.6%	77.1%	69.5%	69.9%
CCN(CC)CCNC(=O)c1c(C)[nH]c(/C=C2\C(=O)Nc3ccc(F)cc32)c1C [sunitinib] + Cn1c(Nc2ccc(C(F)(F)F)cc2)nc2cc(Oc3ccnc(-c4ncc(C(F)(F)F)[nH]4)c3)ccc21 [CHIR265] (first compound 0.4 µM, partner dose 0.08 µM)	86.7%	62%	78.4%	75.4%	59.1%	92%	49.6%	51.3%
COc1cc([C@@H]2c3cc4c(cc3[C@@H](O[C@@H]3O[C@@H]5CO[C@@H](C)O[C@H]5[C@H](O)[C@H]3O)[C@H]3COC(=O)[C@H]23)OCO4)cc(OC)c1O [etoposide] + Nc1nc(F)nc2c1ncn2[C@@H]1O[C@H](CO)[C@@H](O)[C@@H]1O [fludarabine] (first compound 0.02 µM, partner dose 0.2 µM)	95.1%	31.5%	99.9%	109%	86.7%	9.78%	15.6%	78.9%
C[C@]1(O)C[C@@H](c2nc(-c3ccc4ccc(-c5ccccc5)nc4c3)c3c(N)nccn32)C1 + CCN(CC)CCNC(=O)c1c(C)[nH]c(/C=C2\C(=O)Nc3ccc(F)cc32)c1C [sunitinib] (first compound 0.4 µM, partner dose 0.4 µM)	106%	77.4%	88.6%	87.3%	86.1%	92%	75.3%	85.9%
Cn1cnc2c(F)c(Nc3ccc(Br)cc3Cl)c(C(=O)NOCCO)cc21 [selumetinib] + CC(C)C[C@H](NC(=O)[C@H](Cc1ccccc1)NC(=O)c1cnccn1)B(O)O [Bortezomib] (first compound 0.015 µM, partner dose 0.001 µM)	89.6%	82.1%	105%	68.5%	81.8%	80.2%	62.5%	58.6%
Cn1cnc2c(F)c(Nc3ccc(Br)cc3Cl)c(C(=O)NOCCO)cc21 [selumetinib] + CCCS(=O)(=O)Nc1ccc(F)c(C(=O)c2c[nH]c3ncc(Cl)cc23)c1F [PLX4720] (first compound 0.015 µM, partner dose 0.08 µM)	104%	92.7%	110%	87.6%	72.5%	86.9%	82.6%	67.8%
Cn1cnc2c(F)c(Nc3ccc(Br)cc3Cl)c(C(=O)NOCCO)cc21 [selumetinib] + CCN(CC)CCNC(=O)c1c(C)[nH]c(/C=C2\C(=O)Nc3ccc(F)cc32)c1C [sunitinib] (first compound 0.015 µM, partner dose 0.4 µM)	99.9%	83.1%	92.5%	104%	62.7%	80.7%	63.5%	69.2%
COc1cc([C@@H]2c3cc4c(cc3[C@@H](O[C@@H]3O[C@@H]5CO[C@@H](C)O[C@H]5[C@H](O)[C@H]3O)[C@H]3COC(=O)[C@H]23)OCO4)cc(OC)c1O [etoposide] + NC1(c2ccc(-c3nc4ccn5c(=O)[nH]nc5c4cc3-c3ccccc3)cc2)CCC1 [MK2206] (first compound 0.02 µM, partner dose 0.4 µM)	80.9%	69.6%	95.6%	92.4%	67.5%	71.1%	76.2%	62.4%
COc1cc([C@@H]2c3cc4c(cc3[C@@H](O[C@@H]3O[C@@H]5CO[C@@H](C)O[C@H]5[C@H](O)[C@H]3O)[C@H]3COC(=O)[C@H]23)OCO4)cc(OC)c1O [etoposide] + CC(=O)c1c(C)c2cnc(Nc3ccc(N4CCNCC4)cn3)nc2n(C2CCCC2)c1=O [palbociclib] (first compound 0.02 µM, partner dose 0.04 µM)	71.7%	73.8%	66.8%	65.4%	79.3%	83%	71.9%	67.5%
CCN(CC)CCNC(=O)c1c(C)[nH]c(/C=C2\C(=O)Nc3ccc(F)cc32)c1C [sunitinib] + Cn1c(=O)n(-c2ccc(C(C)(C)C#N)cc2)c2c3cc(-c4cnc5ccccc5c4)ccc3ncc21 [NVP-BEZ235] (first compound 0.4 µM, partner dose 0.004 µM)	109%	61.2%	102%	88.8%	60.2%	104%	60.7%	61.8%
C[C@]1(O)C[C@@H](c2nc(-c3ccc4ccc(-c5ccccc5)nc4c3)c3c(N)nccn32)C1 + C[C@]1(c2nc3c(C(N)=O)cccc3[nH]2)CCCN1 [Veliparib] (first compound 0.4 µM, partner dose 1.4 µM)	92.6%	99.8%	95.8%	90%	89.6%	98%	94.1%	76.1%
Cn1cnc2c(F)c(Nc3ccc(Br)cc3Cl)c(C(=O)NOCCO)cc21 [selumetinib] + NC(=O)c1ccc(N(C(N)=O)c2c(F)cccc2F)nc1-c1ccc(F)cc1F [VX702] (first compound 0.015 µM, partner dose 0.4 µM)	89.9%	89.7%	116%	70.7%	63.4%	74.3%	49.2%	70.4%
COc1cc([C@@H]2c3cc4c(cc3[C@@H](O[C@@H]3O[C@@H]5CO[C@@H](C)O[C@H]5[C@H](O)[C@H]3O)[C@H]3COC(=O)[C@H]23)OCO4)cc(OC)c1O [etoposide] + O=c1[nH]nc(Sc2ncc([N+](=O)[O-])s2)n1-c1ccc2c(c1)OCCO2 [BI78D3] (first compound 0.02 µM, partner dose 0.2 µM)	91.1%	86.3%	86.8%	108%	77.5%	90.3%	101%	85.1%
COc1cc([C@@H]2c3cc4c(cc3[C@@H](O[C@@H]3O[C@@H]5CO[C@@H](C)O[C@H]5[C@H](O)[C@H]3O)[C@H]3COC(=O)[C@H]23)OCO4)cc(OC)c1O [etoposide] + O=C(O)[C@@H]1[O][Sb](=[O])([O][Sb]2(=[O])[O][C@H]([C@H](O)CO)[C@H](O)[C@H](C(=O)O)[O]2)[O][C@H]([C@H](O)CO)[C@@H]1O [stibogluconate] (first compound 0.02 µM, partner dose 2 µM)	87.4%	91.5%	88.4%	104%	111%	99.8%	79.7%	89.7%
CCN(CC)CCNC(=O)c1c(C)[nH]c(/C=C2\C(=O)Nc3ccc(F)cc32)c1C [sunitinib] + C[C@@H](Oc1cc(-c2cnn(C3CCNCC3)c2)cnc1N)c1c(Cl)ccc(F)c1Cl [Crizotinib] (first compound 0.4 µM, partner dose 0.2 µM)	107%	101%	103%	118%	95.2%	104%	76.5%	92.2%
COc1cc([C@@H]2c3cc4c(cc3[C@@H](O[C@@H]3O[C@@H]5CO[C@@H](C)O[C@H]5[C@H](O)[C@H]3O)[C@H]3COC(=O)[C@H]23)OCO4)cc(OC)c1O [etoposide] + COc1ccc(C2=N[C@@H](c3ccc(Cl)cc3)[C@@H](c3ccc(Cl)cc3)N2C(=O)N2CCNC(=O)C2)c(OC(C)C)c1 [Nutlin-3] (first compound 0.02 µM, partner dose 0.1 µM)	102%	98.9%	102%	74%	92.9%	91.2%	84.5%	95.4%
Cn1cnc2c(F)c(Nc3ccc(Br)cc3Cl)c(C(=O)NOCCO)cc21 [selumetinib] + O=C(O)[C@@H]1[O][Sb](=[O])([O][Sb]2(=[O])[O][C@H]([C@H](O)CO)[C@H](O)[C@H](C(=O)O)[O]2)[O][C@H]([C@H](O)CO)[C@@H]1O [stibogluconate] (first compound 0.015 µM, partner dose 2 µM)	84.1%	81.9%	93.8%	84.9%	86.2%	68.1%	58.1%	69.5%
CCN(CC)CCNC(=O)c1c(C)[nH]c(/C=C2\C(=O)Nc3ccc(F)cc32)c1C [sunitinib] + Nc1nc(F)nc2c1ncn2[C@@H]1O[C@H](CO)[C@@H](O)[C@@H]1O [fludarabine] (first compound 0.4 µM, partner dose 0.2 µM)	108%	36.2%	107%	136%	76.9%	17.3%	22.2%	94.4%
